# Measured values reported in PubChem BioAssay AID686970 (National Center for Advancing Translational Sciences (NCATS), 2013).
# Out of some 360,000 compounds screened, about 6,000 (1.7%) were called active. This list was built around the results that the source calls inconclusive (neither active nor inactive); the mix of calls is not that of the screen. Calls follow the shape of the dose curve; as a rule, active = well fitted cell-killing curve with a large enough effect; inconclusive = small, poorly fitted or top-dose-only effect, or effect the other way; inactive = flat fitted curve, though single readings scatter. No potency is given beside an inconclusive call; the fits are too rough.
# Experiment: qHTS for induction of synthetic lethality in tumor cells producing 2HG: qHTS for the HT-1080-NT fibrosarcoma cell line;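 also: NT is the 2HG producing partner of a matched IDH1 knockdown line; nearly all actives have a fitted effect of over 55% in size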;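 as to activity, negative = less viability: 0% = DMSO-treated cells and -100% = media-only wells without cells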
# Settings: HT-1080-NT fibrosarcoma viability, CellTiter-Glo ATP luminescence, 48 h; activity, negative = less viability: at 46.1 µM (top of the series) unless noted
# Outline: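 Compounds were tested in concentration-response format on HT-1080-NT cells for 48 hours at 37 degrees C. Cell viability came from CellTiter-Glo luminescence; curves were classified by r2, response magnitude and activity.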
# Potency is read from the fitted curve at half-maximal effect; tags tell the direction and shape of the fitted curve.
SMILES,Potency,"activity, negative = less viability"
COc1ccc(/C(C)=N\NC(=O)CNC(=O)C(c2ccccc2)c2ccccc2)cc1OC,"inconclusive [cytotoxic, single point]",–
O=C(NCCN1CCN(c2cccc(Cl)c2)CC1)c1ccc(CSc2nc3ccncc3[nH]2)cc1,"inconclusive [cytotoxic, partial curve]",–
Cc1ccc(C)c(-n2cc(CNCCCn3cccn3)c(-c3ccccc3)n2)c1,active: 20.6 µM,–
COc1ccc(C(=O)NC(=S)NCc2ccc(-c3nc4ccccc4o3)cc2)cc1OC,"inconclusive [cytotoxic, single point]",–
O=C(NCc1ccccn1)C(=O)NCC1OCCN1S(=O)(=O)c1ccc(Cl)cc1 (centres undefined),inactive,–
Cn1cc(CN(CCCN2CCOCC2)C(=S)Nc2cccc(Cl)c2)c2ccccc21,"inconclusive [cytotoxic, single point]",–
c1ccc(Oc2nc(Oc3ccccc3)nc(N3CCOCC3)n2)cc1,inactive,–
O=[N+]([O-])c1ccc(NNC(=S)Nc2ccccc2)cc1,active: 20 µM,–
O=C(CSc1oc(-c2ccccc2)nc1S(=O)(=O)c1ccccc1)NCC1CCCO1 (centres undefined),inactive,–
CCOC(=O)c1cnc(Nc2nc3ccccc3o2)nc1CN1CCN(C)CC1,"inconclusive [cytotoxic, partial curve]",–
C=CC[N@@+]12CC[C@]34c5ccccc5N5/C=C6\C7N(/C=C(\C53)[C@@H](C[C@@H]41)/C(=C/CO)C2)c1ccccc1[C@@]71CC[N@@+]2(CC=C)C/C(=C\CO)[C@@H]6C[C@@H]12 (some centres undefined),"inconclusive [rising, partial curve]",–
CC1CCCC(NC(=O)CNC(=S)N(Cc2ccccc2)Cc2cccs2)C1C (centres undefined),"inconclusive [cytotoxic, single point]",–
COC(=O)CCC(=O)NC(=S)Nc1sc(C)c(C)c1C(N)=O,"inconclusive [cytotoxic, full curve]",–
CC1(C)O[C@@H]2[C@H](O1)[C@@H](COS(=O)(=O)O)O[C@H]2n1c(=S)[nH]c2c(=O)[nH]c(N)nc21,"inconclusive [rising, single point]",–
Cc1ccc(Cc2c(-c3ccc(Cl)cc3)nc3c(C)cc(Br)cn23)cc1,"inconclusive [cytotoxic, partial curve]",–
CC1(C)C2CCC1(C)C(OCC[N+](C)(C)CC(=O)OC1CCCCC1)C2 (centres undefined),"inconclusive [cytotoxic, partial curve]",–
CCCn1nc(C(=O)Nc2cc(S(=O)(=O)Nc3ccc(OC)cc3)ccc2O)c2ccccc2c1=O,"inconclusive [cytotoxic, single point]",–
CCc1nc2c(OCc3cccc(Cl)c3)cccn2c1N(C)C(=O)Nc1ccccc1OC,–,inconclusive: -40.6%
N#CCc1c(C#N)c(N)nc(Nc2ccccc2)c1C#N,inactive,–
C#CCSc1nncn1C(=O)/C=C/c1ccccc1,"inconclusive [cytotoxic, single point]",–
CC1(C(=O)Nc2cccc3ccccc23)CCN1C(=O)Cc1ccc(Cl)cc1Cl (centres undefined),"inconclusive [cytotoxic, single point]",–
COc1ccc(CC(N)c2csc(Nc3cc(NCc4ccco4)ncn3)n2)cc1 (centres undefined),"inconclusive [cytotoxic, single point]",–
O=c1c2ccccc2oc2cc(Br)ccc12,inactive,–
COc1cc(OC)cc(C(=O)Nc2nc(-c3ccccc3)c(-c3ccccc3)o2)c1,"inconclusive [cytotoxic, partial curve]",–
O=C(CCCCl)NC(=S)Nc1cc(C(F)(F)F)ccc1N1CCOCC1,inactive,–

SMILES,Potency,"activity, negative = less viability"
CSc1nc2nccc(/C=C\c3ccccc3)n2n1,"inconclusive [cytotoxic, single point]",–
Clc1ccccc1-c1nnc2sc(-c3ccc4c(c3)OCO4)nn12,"inconclusive [cytotoxic, single point]",–
CCOC(=O)c1c(-c2ccc(C)o2)csc1NC(=O)CN1CCCCC1,"inconclusive [cytotoxic, single point]",–
COc1ccc(-c2cc(NC(C)=O)c3ncc(-c4ccccc4)n3c2)cc1OC,–,inconclusive: 6.07%
C=CCn1cccc(/C=C/C(=O)c2ccc(C(C)(C)C)cc2)c1=S,"inconclusive [cytotoxic, single point]",–
CSc1ccc(Cl)c(C(=O)Nc2ccc(C)cn2)c1,"inconclusive [cytotoxic, partial curve, poor fit]",–
Cc1csc(NC(=O)c2ccc[nH]c2=O)n1,"inconclusive [cytotoxic, single point]",–
COc1ccc(-c2cc(C(=O)NN)[nH]n2)cc1,inactive,–
CCc1nc2ccc(C(=O)NCCc3ccccn3)cn2c1N(CC)Cc1cccc(Br)c1,"inconclusive [cytotoxic, single point]",–
Cc1ccc(CN2CCN(Cc3cnc(N4CCOCC4)s3)CC2CCO)cc1 (centres undefined),inactive,–
Cc1ccc2nsnc2c1NC(=O)CCl,"inconclusive [cytotoxic, single point]",–
Fc1ccc(CSc2nnc(-c3cccs3)o2)cc1,–,inconclusive: 30.5%
CC(C)c1cccc(-c2csc(C(O)c3cccc(Cl)c3)n2)c1 (centres undefined),"inconclusive [cytotoxic, single point]",–
CCOC(CC(=O)NNC(=O)c1c(-c2c(Cl)cccc2Cl)noc1C)OCC,"inconclusive [rising, single point]",–
Cc1ccc(-c2cc(C(=O)NCCCN3CCCC3)c3ccccc3n2)cc1C,"inconclusive [cytotoxic, single point]",–
CC(C)c1ccc(NC(=O)CCCN2C(=S)NC(C)(C)CC2C)cc1 (centres undefined),inactive,–
CCOC(=O)c1c(C)[nH]c(C(=O)OCC(=O)NCc2ccco2)c1C,inactive,–
COc1ccc2c(c1)c(=O)oc1cc(OCC(=O)N3CCCC(C)C3)ccc12 (centres undefined),inactive,–
Cc1c(C(=O)NCc2cccnc2)oc2ccc(S(=O)(=O)N3CCCCC3)cc12,"inconclusive [cytotoxic, single point]",–
O=C(CSc1cn(CCNC(=O)c2ccccc2)c2ccccc12)NCc1ccco1,inactive,–
C/C(Cl)=C\Cn1c(O)c(N=NC(N)=S)c2ccccc21,inactive,–
COCc1c(C(=O)NC2CCCCCC2)oc2ccccc12,inactive,–
COc1ccc(/C=N/NC(=O)c2sc(C)nc2C)cc1,"inconclusive [cytotoxic, single point]",–
O=C(CC1SC(N2CCOCC2)=NC1=O)Nc1ccc(Cl)cc1 (centres undefined),inactive,–
CC12CCC(C(=O)NCc3ccccc3)(OC1=O)C2(C)C (centres undefined),inactive,–

SMILES,Potency,"activity, negative = less viability"
Cc1cc(C)c(C#N)c(SCC(O)COc2ccc(Br)cc2)n1 (centres undefined),inactive,–
CCOC(=O)c1c(NC(=O)C2=C(C)NC(=S)NC2c2ccc(C)cc2)sc(C)c1C (centres undefined),"inconclusive [cytotoxic, partial curve]",–
Cc1ccc2[nH]c(=O)c3cc(C(=O)N4CCN(C(=O)c5ccco5)CC4)sc3c2c1,inactive,–
COc1ccc(NS(=O)(=O)c2ccc(-c3coc(C)n3)cc2)cc1,–,inconclusive: -7.18% [cytotoxic]
O=C(Nc1ccc(N2CCCCC2)cc1)c1ccccn1,active: 9.2 µM,–
CCOC(=O)c1sc(NC(=O)CN2C(=O)NC3(CC(C)CC(C)(C)C3)C2=O)cc1C (centres undefined),"inconclusive [cytotoxic, single point]",–
CSc1nc(-c2ccccc2)c2cc(Cl)ccc2n1,inactive,–
CN1CCN(c2ccc(Nc3ccnc4cc(Cl)ccc34)cc2)CC1,"inconclusive [cytotoxic, single point]",–
Cc1cccc(CS(=O)(=O)c2ncc(Cl)c(C(=O)Nc3nnc(C(C)C)s3)n2)c1,active: 10.3 µM,–
CCc1cc(SC#N)cc(CC)c1NC(=O)CCl,"inconclusive [cytotoxic, single point]",–
CNC(=S)N/N=C/c1cc(Br)cc(Br)c1O,"inconclusive [cytotoxic, partial curve, poor fit]",–
CCCCC(=O)NC1(C(F)(F)F)C(=O)N(CC(C)C)C2=C1C(=O)CC(C)(C)C2 (centres undefined),inactive,–
O=C(CS(=O)(=O)Cc1ccccc1)NCc1ccco1,inactive,–
Cc1ccc(NS(=O)(=O)c2ccc(NC(=O)C3CC3)cc2)c(C)c1,"inconclusive [cytotoxic, partial curve, poor fit]",–
Cc1ccc(C2(C)NC(=O)N(CC(=O)NNC(=O)c3ccccc3F)C2=O)cc1 (centres undefined),inactive,–
COc1cc(C(O)c2nc(-c3cccc(F)c3)cs2)ccc1F (centres undefined),"inconclusive [cytotoxic, single point]",–
COc1ccc2c(c1)CCc1c(C(=O)N3CC4(C)CC3CC(C)(C)C4)noc1-2 (centres undefined),"inconclusive [cytotoxic, single point]",–
COc1ccc2ccccc2c1CNC(C)CCc1ccccc1 (centres undefined),"inconclusive [cytotoxic, single point]",–
CCCCn1nc(C(=O)NC2=NCCS2)c2ccccc2c1=O,inactive,–
COc1ccc(CN2CCN(Cc3c[nH]c4ccccc34)CC2)c(OC)c1,inactive,–
COc1cc(Cl)c(C)cc1NC(=O)CC1CCCC1,inactive,–
CC(C)n1cnc2c(=S)nc[nH]c21,inactive,–
C=CCNC(=O)c1ccccc1NC(=O)c1ccc(Cl)c(S(=O)(=O)Nc2ccccc2)c1,"inconclusive [cytotoxic, single point]",–
COc1ccc(Cl)cc1NC(=S)NCCN1CCOCC1,inactive,–
